Measurements from the supplement of paper PMC11417369.
± gives the standard deviation of the averaged measurements. The list shows a part of the results.

These sequences were tested on PfAP2-I AP2 domain 3 (GST-tagged) (assay: gcPBM binding intensity (ln(normalized median fluorescence intensity)); higher = stronger DNA binding).
Outline: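 After 1 h on an Agilent 4 × 180k array of primer-extended double-stranded 36-bp intergenic genomic probes and negative controls, bound GST-tagged P. falciparum DNA-binding domains were detected with Alexa488 anti-GST antibody and scanned at 488 nm. The domains had been expressed in E. coli, and binding took place in 1× PBS with 1% milk, 0.2 mg/ml BSA, 0.5% salmon testes DNA and 0.03% Triton X-100. Binding intensity is the highest Masliner-normalised natural-log median intensity across replicate spots of either probe orientation.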

Sequence	gcPBM binding intensity (ln)
GTTGATACATGAAGCTGTACATAATATTTGTCATTT [XGTACX_site8628]	7.78 ± 0.58
TAAAATTAATTTCTGTTGCACTTATTATTAATTAAC	9.46 ± 0.16
TTTTTTTTTTTTTGCACACACCATATTTATAGAAAT [CACACA_site5772]	9.44 ± 0.38
ATATTATACCCGTGTACACATTATAACCATATATAA [CACACA_site5933]	9.44 ± 0.46
TATATGTATAGAAAATGTACATATAAATATATATAT [XGTACX_site3420]	8.7 ± 0.2
AATTAAAATAGTAATACACACTTCATAGGAAATGAT [CACACA_site5045]	7.62 ± 0.46
TATGTATCAAATAAATGTACATATATATATATATAT [XGTACX_site2189]	9.26 ± 0.38
AAATTTTTTATGAACACACAAATACACGCACTCAAA [CACACA_site7286]	9.045 ± 0.049
TAAAATATATAAAACTGTACATTTTAAAGGCACAAC [XGTACX_site8342]	9.72 ± 0.33
AATAATAAAATAAAGGCATGCACAATATGCTATAAA [TGCATGCA_site645]	8.23 ± 0.87
CCTTTATTTTATATGTGTACTAAATTGTATATATAT [XGTACX_site8717]	8.46 ± 0.45
ATGTTTTATAAAAGGCGTACACATATGCTTAAGTAA [XGTACX_site6232]	8.18 ± 0.55
CTGAAGGAAAAAGAAAGTACTTTTTTTTTTTTGAAG [XGTACX_site5973]	7.57 ± 0.48
AAAAAAAAAATATCATGTACAAATATAATAAAATTT [XGTACX_site3896]	7.46 ± 0.46
TATAGCAAAAAATTTACACACATGTTTTTTCTATAC [CACACA_site325]	8 ± 0.49
GGCATTTTATGAAGTAGTACCATAAATATTAAAGAT [XGTACX_site5287]	8.07 ± 0.52
AAAAAAAATTCCAGTACACACAATAATACTAAAAAT [CACACA_site2801]	7.84 ± 0.39
AAAAATTACAAAAATGCATGTACTATTCATATTTTT [TGCATGCA_site918]	7.64 ± 0.62
ATTATATTAATATATATATATATATATATAATAATA [CACACA_negctrl_site437]	7.83 ± 0.32
TTTTTTTCTCTTTTTATTACAAAAAGGGTTTATATA [TGCATGCA_negctrl_site75]	7.67 ± 0.28
TAATATTATATTATATGTACATAACAAATTATATTT [XGTACX_site4296]	7.96 ± 0.16
ATGAAAAAATTTAAATGTACATTACATATATTTATT [XGTACX_site2524]	7.62 ± 0.45
TCTTTTTTTTTTTTTTTTTCTTCTTCTCAATATAAA [GTGCAC_negctrl_site303]	7.72 ± 0.45
TATGCACACAATATATGTACTTATATATTTTAAAAA [XGTACX_site5482]	8.05 ± 0.19
TTTTATAAAAAAACTATAAAAATATATAGTACTTAA [CACACA_negctrl_site440]	7.34 ± 0.45
